Experimental data as given in PubChem BioAssay AID662 (National Center for Advancing Translational Sciences (NCATS), 2007).
Hit rate of the full screen: of about 71,000 compounds, about 1,800 (2.5%) were called active. Inconclusive means that the source gave no clear call. Such entries were picked first, then a sample of the others. Calls come from the whole dose curve; as a rule, active = well fitted activation curve with a large enough effect in the signal ratio, with a control signal flat (not every such curve was filed as active); inconclusive = small, poorly fitted or top-dose-only effect, or effect the other way, or a change in a side signal; inactive = flat fitted curve, though single readings scatter; the % refers to the signal ratio. A potency beside an inconclusive call is a rough fit, not a confirmed value.
Potency is the fitted concentration of half-maximal effect; tags give direction and shape of the fitted curve.

Assay: Cell signaling CRE-BLA (Fsk stim); for activity change, negative = inhibition: % of control where 0% means no effect
Conditions: CHO CRE-bla reporter (cAMP response element driving beta-lactamase), forskolin EC10, beta-lactamase ratio; activity change, negative = inhibition: at 38.2 µM (top of the series) unless noted
Method in brief: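 The 460nm/530nm emission ratio after CCF4 loading defined %Activity, from which AC50 values were obtained. CRE-bla CHO cells received compound dilution series together with an EC10 level of NKH 477 for 3 hours at 37 degrees Celsius.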
For O=C(Nc1nc(-c2cc(Cl)sc2Cl)cs1)c1cccs1, the activity change, negative = inhibition was inconclusive: -11.4%.
With CC(=O)c1cccc(N(CC(=O)NCC2CCCO2)C(=O)CCC(=O)Nc2cc(C)on2)c1 (configuration not stated) the activity change, negative = inhibition was inconclusive: -6.33%.
In the case of CC(C)Nc1oc(Cc2cccc3ccccc23)nc1C#N, the Potency is reported as inconclusive: 12.6 µM [rising, partial curve].
In the case of O=S(=O)(Nc1ncn[nH]1)c1ccc2ccccc2c1, the activity change, negative = inhibition is reported as “inactive”.
For Nn1c(SCC(=O)Nc2ccc3c(c2)OCO3)nnc1C1CCCCC1, the activity change, negative = inhibition was inconclusive: 1.3%.
With CCC(c1nnnn1C1CCCC1)N(Cc1cccs1)Cc1cc2cccc(C)c2[nH]c1=O (configuration not stated) the Potency was inconclusive: 3.98 µM [rising, single point].
For CN(C)c1ccc(NC(=O)CN2CCN(S(=O)(=O)c3cc(Cl)ccc3Cl)CC2)cc1, the Potency was inconclusive: 1.58 µM [falling, full curve].
With C1CCCNCC1 the activity change, negative = inhibition was “inactive”.
With O=c1c2ccccc2nc(-c2ccccc2)n1CCCn1ccnc1 the activity change, negative = inhibition was inconclusive: 24.8%.
For O=C(NCC1COc2ccccc2O1)C1CCN(S(=O)(=O)c2cccc3nsnc23)CC1 (configuration not stated), the Potency was inconclusive: 0.2 µM [falling, full curve, poor fit].
In the case of Cc1c(/C=N/n2cnnc2)c2ccccc2n1CCOc1ccccc1, the Potency is reported as inconclusive: 6.31 µM [rising, partial curve].
With CN(C)c1cc(-c2ccccc2)nc(N)n1 the activity change, negative = inhibition was inconclusive: 23%.
With O=C(COc1ccccc1Cl)OCC(=O)N1CCN(S(=O)(=O)c2ccccc2)CC1 the activity change, negative = inhibition was inconclusive: -7.37%.
With Cc1ccc2nc(SCc3nnc(-c4cccs4)o3)[nH]c2c1 the Potency was inconclusive: 10 µM [rising, partial curve].
In the case of COCCn1c(NCc2ccc(C)cc2)nc2c1c(=O)[nH]c(=O)n2C, the Potency is reported as inconclusive: 3.16 µM [rising, single point].
For Cn1c(=O)c2c(nc(CN3CCC(C(N)=O)CC3)n2Cc2c(Cl)cccc2Cl)n(C)c1=O, the activity change, negative = inhibition was “inactive”.
In the case of CCOC(=O)C1CCCCN1C(=O)CCc1c(C)nc2ncnn2c1C (configuration not stated), the activity change, negative = inhibition is reported as inconclusive: 8.25%.
With CC(C)(C)OC(=O)NCCCCCc1nnc(SCC(=O)Nc2cccc(Cl)c2)o1 the activity change, negative = inhibition was inconclusive: -9.95%.
With c1ccc(Cn2nnc3c(N4CCOCC4)ncnc32)cc1 the Potency was active: 10 µM.
For Cc1cc(C(=O)CN2C(=O)C3CC=CCC3C2=O)c(C)n1-c1ccccc1 (configuration not stated), the activity change, negative = inhibition was inconclusive: 20.2%.
In the case of CCCn1c(SCC(=O)Nc2ccc3c(c2)OCCO3)nnc1-c1ccco1, the activity change, negative = inhibition is reported as “inactive”.
In the case of COc1ccc(OC)c(NC(=O)Cn2cnc3c(cnn3-c3ccccc3)c2=O)c1, the Potency is reported as inconclusive: 10 µM [rising, single point].
